Assay results reported in PubChem BioAssay AID1508624 (National Center for Advancing Translational Sciences (NCATS), 2021).
Out of some 48,000 compounds screened, about 120 (0.25%) were called active. Not shown: some 4% with an inconclusive outcome. The call rests on the fitted dose curve; in most records, active means well fitted activation curve with a large enough effect; inconclusive means small, poorly fitted or top-dose-only effect, or another doubt; inactive means no such curve, though single readings can be large or run the other way. The list shows a part of the results.

assay: Primary qHTS for Identification of Small Molecule Activators of Huntingtin-Antisense Promoter Activity; conditions: HEK293 HTT-AS promoter firefly luciferase reporter (activity 0% = vehicle and -100% = no light), 24 h; series mostly up to 57.5 µM; activity change, positive = activation: at the top concentration; further: nearly all actives have a fitted effect of over 55% in size
Outline: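 HEK293 luciferase promoter-reporter cells (2,500/well) plated 24 h, then compounds added at up to 57.5 uM final for 24 h at 37 °C. Firefly luminescence by Dual-Glo, normalized to vehicle (0%) and zero RLU (-100%).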

Activity change, positive = activation, inactive:
Cc1cc2oc(C(=O)N(Cc3ccco3)Cc3ccccc3Cl)c(C)c2cc1C -21.5%
CCOC(=O)c1ccccc1NC(=O)c1cnc(N2CCOCC2)c2ccccc12 -20.8%
COc1ccc(C(=O)N(Cc2ccc(N(C)C)cc2)CC2CCCO2)cc1 (configuration not stated) -1.27%
COc1cc(NC(=O)CSc2nc(-c3ccc(C(C)C)cc3)no2)cc(OC)c1 -86.5%
COc1ccc(NC(=O)CSc2cn(CCNC(=O)c3c(F)cccc3F)c3ccccc23)cc1 -32.6%
Cc1ccc(NC(=O)CSc2nc3ccc(NC(=O)CCc4ccccc4)cc3s2)cc1 -3.27%
CCN1CCN(Cc2c(O)ccc3c(=O)c(Oc4ccccc4C(C)C)c(C(F)(F)F)oc23)CC1 0%
CCCN1CCN(CCCNC(=O)Cn2nc(C)n3c(cc4c(OC)cccc43)c2=O)CC1 -1.24%
Cc1ccc(CNC(=O)c2cc3ccc4cccnc4c3[nH]2)cc1 18.1%
Cc1ccc(NC(=O)Cn2cnc3c2c(=O)n(C)c(=O)n3C)cc1C -5.87%
CCN(C(=O)Cn1c(=O)n(Cc2ccccc2)c(=O)c2c1c1cc(OC)ccc1n2C)c1ccccc1 -6.6%
COc1ccc(-c2noc(-c3ccc(NC4CCCC4)c([N+](=O)[O-])c3)n2)cc1OC -0.675%
Cc1ccccc1CNC(=O)c1ccc2nc(C(C)C)oc2c1 25%
COc1cc(Cl)c(C)cc1NC(c1ccccc1)c1nnc(-c2ccccc2Cl)o1 (configuration not stated) -3.67%
CC(=O)Nc1ccc2nc(NC(=O)CS(=O)(=O)c3ccc(C)cc3)sc2c1 4.31%
COc1ccc(C2=Nc3ccc(OC(F)(F)F)cc3NC(c3cccnc3)=N2)cc1 -52.7%
Cc1ccc(C)c(N2CCN(S(=O)(=O)c3cn(C)c(C)n3)CC2)c1 -19.6%
COC(=O)C=CC(=O)OC -30.7%
COc1ccc(CNC(=O)C2CCN(S(=O)(=O)c3ccc4c(c3)CCCN4C(C)=O)CC2)cc1 -21.6%
COCc1cc(C)nc2sc3c(=O)n(-c4ccccc4C(F)(F)F)nnc3c12 9.41%
Cc1ccc(C)c(CSc2nnc3[nH]c(=O)cc(-c4ccccc4)n23)c1 5.09%
CCCn1cc(S(=O)(=O)c2cc(C)ccc2C)c(=O)c2cc(F)c(N3CCN(CC)CC3)cc21 -11.2%
CCOC(=O)c1c(S(=O)(=O)NCC(=O)NCc2ccccc2Cl)c(C)n(C)c1C -6.66%
Cc1cccc(NC(=O)C2CCN(S(=O)(=O)c3ccc4c(c3)CCCN4C(=O)C3CCC3)CC2)c1 -26.3%
COCCCn1c(=O)c2sccc2n2c(CCCC(=O)NC3CCC(C)CC3)nnc12 (configuration not stated) -7.43%
CCCCCCCc1ccc(CCc2cccc(O)c2C(=O)O)cc1 -9.74%
Cc1cccc(C)c1-n1ncc(C(=O)N2CCN(c3ncccn3)CC2)c1C1CCN(C(=O)OC(C)(C)C)CC1 15.2%
